Over roughly 33,000 sequences, “E-score (-0.5 to 0.5)” has its median near -0.043; the highest 2% begin near 0.37. This is one part of the list.

The record followed here is the supplement of paper PMC3334620.

This test has as its target T1, Upc2 (UniProt Q12151).
T1 sequence: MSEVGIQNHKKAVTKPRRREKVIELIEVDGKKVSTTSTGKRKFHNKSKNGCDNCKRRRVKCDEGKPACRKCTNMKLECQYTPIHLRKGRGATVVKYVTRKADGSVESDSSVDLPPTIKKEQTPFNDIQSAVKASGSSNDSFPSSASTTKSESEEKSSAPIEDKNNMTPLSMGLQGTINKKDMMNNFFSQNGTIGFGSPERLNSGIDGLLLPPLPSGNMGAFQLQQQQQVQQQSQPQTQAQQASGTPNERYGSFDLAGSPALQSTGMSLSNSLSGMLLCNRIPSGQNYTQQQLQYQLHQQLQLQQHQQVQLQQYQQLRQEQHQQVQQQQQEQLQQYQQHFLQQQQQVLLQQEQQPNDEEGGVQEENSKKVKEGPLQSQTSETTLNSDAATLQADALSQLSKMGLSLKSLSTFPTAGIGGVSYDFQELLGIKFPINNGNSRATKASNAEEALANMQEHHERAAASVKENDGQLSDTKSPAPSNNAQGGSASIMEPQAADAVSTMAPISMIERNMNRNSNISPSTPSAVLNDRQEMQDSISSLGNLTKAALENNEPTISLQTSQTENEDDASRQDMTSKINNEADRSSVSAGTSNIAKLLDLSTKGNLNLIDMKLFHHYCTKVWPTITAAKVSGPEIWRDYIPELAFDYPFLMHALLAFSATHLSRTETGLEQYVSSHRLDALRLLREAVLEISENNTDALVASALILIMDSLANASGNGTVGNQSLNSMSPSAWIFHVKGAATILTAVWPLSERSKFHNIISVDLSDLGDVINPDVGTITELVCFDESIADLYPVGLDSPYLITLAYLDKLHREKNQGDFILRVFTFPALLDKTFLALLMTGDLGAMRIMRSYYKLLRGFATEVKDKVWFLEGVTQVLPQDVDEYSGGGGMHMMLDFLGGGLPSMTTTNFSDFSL
Kind of test: PBM E-score (8-mer binding enrichment) (E-score (-0.5 to 0.5)); higher = stronger / more preferred TF binding; most listed sequences are background and not binding sites. Particulars: protein concentration: 200 nM; construct: GST-full length. Summed up: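 Each ungapped eight-base word and its reverse complement, pooled, received an E-score from the Universal PBM Analysis Suite. Underlying scans, normalised with masliner, recorded fluorescent anti-GST bound to GST-tagged yeast transcription factors. These were applied at about 100-200 nM to universal all-10-mer Agilent arrays double-stranded by primer extension.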
In the case of AGACAACA, the “PBM E-score” value worked out at 0.0149. For TCTCTCAA the value was -0.0834; for GGAGCGTA, 0.201; for ACAAATAT, 0.0565. In the case of AAACTAAC, the “PBM E-score” value was 0.179. As for ATTAGTCC, the “PBM E-score” value was -0.066. The same measure for AAGACACC: -0.00077; for GATGCGCA: -0.172; for GGCGGTAC: 0.122. In the case of ATGTGTGG, the “PBM E-score” value was -0.215. The same measure for TCAGCGCA: -0.178; for ACATATTA: 0.0239; for CTGGTAAG: -0.0253. Regarding AGGTTTGA, the “PBM E-score” value was -0.118. With AAGAGGAA, the “PBM E-score” value was -0.13.

ATGTATCA: the “PBM E-score” value worked out at 0.0504. In the case of GAGTAATC, the “PBM E-score” value is -0.108. For AAAATGTT the value was 0.0781; for GTAAATCA, 0.168. On to GCTGGACC, for which the “PBM E-score” value is -0.0565. For AGAATCAG the value was -0.0805; for AGTGCTCC, -0.0323; for AACCGATT, 0.155. For CGAACCAC, the “PBM E-score” value was 0.122.

Consider AAGTACGA, for which the “PBM E-score” value stood at 0.407. Turning to GGGACGGA, the “PBM E-score” value is -0.259. CAGGCATA: the “PBM E-score” value was -0.0275. As to GATAGCAC, the “PBM E-score” value is -0.0286.

Regarding CGGAACAG, the “PBM E-score” value is 0.0687. The same measure for GAAGCCGC: -0.0707; for TCCCACCA: -0.0746; for GACTGCTC: -0.0984. GACCGTGC: the “PBM E-score” value is -0.197. Regarding GTGAGCGA, the “PBM E-score” value turned out to be 0.179. Turning to AGGCTGAA, the “PBM E-score” value was -0.282. CCGTCTCC: the “PBM E-score” value was -0.0968. For the sequence CAGGAGCG, the “PBM E-score” value was 0.00502. As for AAGGGTGA, the “PBM E-score” value is -0.0338. The same measure for ACTCGTAT: 0.483.

As to AGAGACCC, the “PBM E-score” value is -0.223. For CACACTAA, the “PBM E-score” value was 0.0735. For ATTTAGCG, the “PBM E-score” value came to 0.0823. Regarding ACCACAAC, the “PBM E-score” value amounted to 0.0838. As to ACTGCATA, the “PBM E-score” value was -0.148.

With CCGCCCAG, the “PBM E-score” value is -0.0999. As to GACTGCTA, the “PBM E-score” value is -0.202. For CTGGGCTC, the “PBM E-score” value is -0.0826.

As for ACTTAACT, the “PBM E-score” value is -0.0538. On to CAATGGAC, for which the “PBM E-score” value stood at 0.00441.

With CTCGGGCC, the “PBM E-score” value was -0.148.

As for CCCAGACC, the “PBM E-score” value was -0.181.

In the case of CGAGTCCA, the “PBM E-score” value is -0.0394. With GAGCGAAA, the “PBM E-score” value is 0.16. Consider ACTGCAAC, for which the “PBM E-score” value was -0.0949. The same measure for GCCTAGCA: -0.21.

On to CATCTAAA, for which the “PBM E-score” value came out at 0.0138. In the case of AAATGCCT, the “PBM E-score” value was -0.138.

In the case of GACATGTA, the “PBM E-score” value is -0.0795. For GGGGCAAA, the “PBM E-score” value was -0.173.

Take GCCGAAGA: the “PBM E-score” value was found to be 0.139.

On to CCGGTCAG, for which the “PBM E-score” value is -0.179.

Regarding ATCCGGTC, the “PBM E-score” value came to 0.0273.

Regarding GTCCATAA, the “PBM E-score” value is -0.261.

On to AATATCCT, for which the “PBM E-score” value is -0.0643. For ATTAGGTA the value was 0.0734; for GCGCCGCA, -0.12; for GCGCATAA, 0.0729. Turning to ATCTTACC, the “PBM E-score” value amounted to 0.00572. In the case of GCATAGGA, the “PBM E-score” value was -0.0298. The same measure for ATCTCCCA: -0.0924; for ACTAGGTG: -0.327; for GAAGTGAA: -0.084. As to GTCCGCTA, the “PBM E-score” value came out at 0.0438. Take AGCGCCCA: the “PBM E-score” value is -0.343. With TGCCTAAA, the “PBM E-score” value was -0.0221. On to CAACGCTG, for which the “PBM E-score” value was -0.0985. Regarding AGCGTTTA, the “PBM E-score” value came out at 0.363. For ACGTCTTA the value was 0.227; for AGAATCTG, 0.069. The same measure for GCTAAAAA: -0.149.

For the sequence CACGCATA, the “PBM E-score” value was -0.0465. Consider CAGAGTAC, for which the “PBM E-score” value was -0.0144.

Turning to CGCTGCCG, the “PBM E-score” value was -0.0536. In the case of GACGGGCC, the “PBM E-score” value was -0.0442. On to TAACTAAA, for which the “PBM E-score” value is -0.00267. The same measure for CCGCGGCC: 0.0862.
